Data reported in the supplement of paper PMC4967469.
A lower IC50 marks a more sensitive line; fits outside the tested doses are given as limits. AUC sums up the same curve from the lowest dose to the 256-fold higher top dose; it is 1 without any effect and falls as sensitivity rises.

Compound: N#CC[C@H](C1CCCC1)n1cc(-c2ncnc3[nH]ccc23)cn1 [Ruxolitinib]
Assay: Viability of human cancer cell lines after 72 h of drug (GDSC screen)
Method: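 Human cancer cell lines in 384-well plates, medium with 10% serum, drug for 72 h over a 256-fold dose range (nine 2-fold or five 4-fold steps up to the top dose). Adherent lines were fixed and stained with the nucleic acid dye Syto60, suspension lines read with resazurin; signal relative to control wells, capped at 0 and 100%. One two-parameter sigmoid per drug and line, fitted in a mixed model over all curves with the slope shared within a line.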

Cell Line | AUC | IC50
KYSE-140 (oesophagus, adherent, top dose 5.24 µM) | 0.981 | > 5.24 µM
KYSE-150 (oesophagus, adherent, top dose 5.24 µM) | 0.989 | > 5.24 µM
KYSE-180 (oesophagus, adherent, top dose 5.24 µM) | 0.987 | > 5.24 µM
KYSE-220 (oesophagus, adherent, top dose 5.24 µM) | 0.98 | > 5.24 µM
KYSE-270 (oesophagus, adherent, top dose 5.24 µM) | 0.989 | > 5.24 µM
KYSE-410 (oesophagus, adherent, top dose 5.24 µM) | 0.985 | > 5.24 µM
KYSE-450 (oesophagus, adherent, top dose 5.24 µM) | 0.971 | > 5.24 µM
KYSE-510 (oesophagus, adherent, top dose 5.24 µM) | 0.992 | > 5.24 µM
KYSE-520 (oesophagus, adherent, top dose 5.24 µM) | 0.98 | > 5.24 µM
L-363 (myeloma, suspension, top dose 5.24 µM) | 0.988 | > 5.24 µM
L-428 (Hodgkin lymphoma, suspension, top dose 5.24 µM) | 0.98 | > 5.24 µM
L-540 (Hodgkin lymphoma, suspension, top dose 5.24 µM) | 0.99 | > 5.24 µM
L-1236 (Hodgkin lymphoma, suspension, top dose 5.24 µM) | 0.669 | 0.889 µM
LAMA-84 (chronic myeloid leukaemia, suspension, top dose 5.24 µM) | 0.968 | > 5.24 µM
LAN-6 (neuroblastoma, adherent, top dose 5.24 µM) | 0.978 | > 5.24 µM
LB373-MEL-D (melanoma, adherent, top dose 5.24 µM) | 0.989 | > 5.24 µM
LB647-SCLC (small cell lung carcinoma, semi-adherent, top dose 5.24 µM) | 0.972 | > 5.24 µM
LB771-HNC (head and neck, adherent, top dose 5.24 µM) | 0.981 | > 5.24 µM
LB831-BLC (bladder, adherent, top dose 5.24 µM) | 0.987 | > 5.24 µM
LB996-RCC (kidney, adherent, top dose 5.24 µM) | 0.983 | > 5.24 µM
LB1047-RCC (kidney, adherent, top dose 5.24 µM) | 0.983 | > 5.24 µM
LB2241-RCC (kidney, adherent, top dose 5.24 µM) | 0.984 | > 5.24 µM
LC4-1 (lymphoblastic leukaemia, suspension, top dose 5.24 µM) | 0.982 | > 5.24 µM
LC-1-sq (lung squamous cell carcinoma, adherent, top dose 5.24 µM) | 0.983 | > 5.24 µM
LC-2-ad (lung adenocarcinoma, adherent, top dose 5.24 µM) | 0.963 | > 5.24 µM
LCLC-97TM1 (large cell lung carcinoma, adherent, top dose 5.24 µM) | 0.976 | > 5.24 µM

Cell Line | AUC | IC50
LCLC-103H (large cell lung carcinoma, adherent, top dose 5.24 µM) | 0.989 | > 5.24 µM
LK-2 (lung squamous cell carcinoma, adherent, top dose 5.24 µM) | 0.989 | > 5.24 µM
LN-18 (glioma, adherent, top dose 5.24 µM) | 0.992 | > 5.24 µM
LN-229 (glioma, adherent, top dose 5.24 µM) | 0.988 | > 5.24 µM
LN-405 (glioma, adherent, top dose 5.24 µM) | 0.977 | > 5.24 µM
LNCaP-Clone-FGC (prostate, adherent, top dose 5.24 µM) | 0.984 | > 5.24 µM
LNZTA3WT4 (glioma, adherent, top dose 5.24 µM) | 0.989 | > 5.24 µM
LOU-NH91 (lung squamous cell carcinoma, adherent, top dose 5.24 µM) | 0.979 | > 5.24 µM
LOUCY (T-cell lymphoblastic leukaemia, suspension, top dose 5.24 µM) | 0.921 | > 5.24 µM
LP-1 (myeloma, suspension, top dose 5.24 µM) | 0.988 | > 5.24 µM
LS-123 (large intestine, adherent, top dose 5.24 µM) | 0.96 | > 5.24 µM
LS-180 (large intestine, adherent, top dose 5.24 µM) | 0.985 | > 5.24 µM
LS-411N (large intestine, adherent, top dose 5.24 µM) | 0.976 | > 5.24 µM
LS-513 (large intestine, adherent, top dose 5.24 µM) | 0.987 | > 5.24 µM
LS-1034 (large intestine, adherent, top dose 5.24 µM) | 0.985 | > 5.24 µM
LU-65 (large cell lung carcinoma, suspension, top dose 5.24 µM) | 0.968 | > 5.24 µM
LU-99A (large cell lung carcinoma, adherent, top dose 5.24 µM) | 0.985 | > 5.24 µM
LU-134-A (small cell lung carcinoma, suspension, top dose 5.24 µM) | 0.985 | > 5.24 µM
LU-135 (small cell lung carcinoma, suspension, top dose 5.24 µM) | 0.979 | > 5.24 µM
LU-139 (small cell lung carcinoma, suspension, top dose 5.24 µM) | 0.935 | > 5.24 µM
LU-165 (small cell lung carcinoma, suspension, top dose 5.24 µM) | 0.984 | > 5.24 µM
LXF-289 (lung adenocarcinoma, adherent, top dose 5.24 µM) | 0.986 | > 5.24 µM
M14 (melanoma, adherent, top dose 5.24 µM) | 0.985 | > 5.24 µM
M059J (glioma, adherent, top dose 5.24 µM) | 0.984 | > 5.24 µM
MC116 (B-cell lymphoma, suspension, top dose 5.24 µM) | 0.999 | > 5.24 µM
MC-CAR (haematopoietic neoplasm, suspension, top dose 5.24 µM) | 0.984 | > 5.24 µM

Cell Line | AUC | IC50
MC-IXC (neuroblastoma, adherent, top dose 5.24 µM) | 0.996 | > 5.24 µM
MDA-MB-157 (breast, adherent, top dose 5.24 µM) | 0.987 | > 5.24 µM
MDA-MB-175-VII (breast, adherent, top dose 5.24 µM) | 0.987 | > 5.24 µM
MDA-MB-330 (breast, adherent, top dose 5.24 µM) | 0.984 | > 5.24 µM
MDA-MB-361 (breast, adherent, top dose 5.24 µM) | 0.988 | > 5.24 µM
MDA-MB-415 (breast, adherent, top dose 5.24 µM) | 0.982 | > 5.24 µM
MDA-MB-436 (breast, adherent, top dose 5.24 µM) | 0.984 | > 5.24 µM
MDA-MB-453 (breast, adherent, top dose 5.24 µM) | 0.981 | > 5.24 µM
MDST8 (large intestine, adherent, top dose 5.24 µM) | 0.986 | > 5.24 µM
ME-1 (acute myeloid leukaemia, suspension, top dose 5.24 µM) | 0.987 | > 5.24 µM
ME-180 (cervix, adherent, top dose 5.24 µM) | 0.983 | > 5.24 µM
MEG-01 (chronic myeloid leukaemia, suspension, top dose 5.24 µM) | 0.975 | > 5.24 µM
MEL-JUSO (melanoma, adherent, top dose 5.24 µM) | 0.982 | > 5.24 µM
MES-SA (uterus, adherent, top dose 5.24 µM) | 0.992 | > 5.24 µM
MFE-280 (endometrium, adherent, top dose 5.24 µM) | 0.972 | > 5.24 µM
MFE-296 (endometrium, adherent, top dose 5.24 µM) | 0.985 | > 5.24 µM
MFE-319 (endometrium, adherent, top dose 5.24 µM) | 0.988 | > 5.24 µM
MFH-ino (soft tissue, adherent, top dose 5.24 µM) | 0.98 | > 5.24 µM
MFM-223 (breast, adherent, top dose 5.24 µM) | 0.985 | > 5.24 µM
MG-63 (osteosarcoma, adherent, top dose 5.24 µM) | 0.983 | > 5.24 µM
MHH-NB-11 (neuroblastoma, adherent, top dose 5.24 µM) | 0.976 | > 5.24 µM
MHH-PREB-1 (B-cell leukaemia, suspension, top dose 5.24 µM) | 0.987 | > 5.24 µM
MKN1 (stomach, adherent, top dose 5.24 µM) | 0.977 | > 5.24 µM
MKN28 (stomach, adherent, top dose 5.24 µM) | 0.986 | > 5.24 µM
MKN45 (stomach, adherent, top dose 5.24 µM) | 0.981 | > 5.24 µM
ML-1 (thyroid, adherent, top dose 5.24 µM) | 0.984 | > 5.24 µM
